Assay results reported in PubChem BioAssay AID1159614 (National Center for Advancing Translational Sciences (NCATS), 2016).
About 65 (0.1%) of roughly 45,000 compounds were called active. Calls follow the shape of the dose curve; as a rule, active = well fitted activation curve with a large enough effect; inconclusive = small, poorly fitted or top-dose-only effect; inactive = no such curve, though single readings can be large or run the other way. Some of the results follow.

Each molecule was assayed against Galactocerebrosidase (Homo sapiens) (UniProt P54803) (assay: A Novel Cell-Based Assay to Identify Small Molecules for B -Galactocerebrosidase). Settings: 145M-Twi-hGALC-G270D cells (Twitcher mouse brain line with human GALC G270D), HMU-beta-Gal fluorescence, 48 h; series mostly up to 57.5 µM; activation: at the top concentration.
Chain of UniProt P54803 (P54803 whole entry, looked up): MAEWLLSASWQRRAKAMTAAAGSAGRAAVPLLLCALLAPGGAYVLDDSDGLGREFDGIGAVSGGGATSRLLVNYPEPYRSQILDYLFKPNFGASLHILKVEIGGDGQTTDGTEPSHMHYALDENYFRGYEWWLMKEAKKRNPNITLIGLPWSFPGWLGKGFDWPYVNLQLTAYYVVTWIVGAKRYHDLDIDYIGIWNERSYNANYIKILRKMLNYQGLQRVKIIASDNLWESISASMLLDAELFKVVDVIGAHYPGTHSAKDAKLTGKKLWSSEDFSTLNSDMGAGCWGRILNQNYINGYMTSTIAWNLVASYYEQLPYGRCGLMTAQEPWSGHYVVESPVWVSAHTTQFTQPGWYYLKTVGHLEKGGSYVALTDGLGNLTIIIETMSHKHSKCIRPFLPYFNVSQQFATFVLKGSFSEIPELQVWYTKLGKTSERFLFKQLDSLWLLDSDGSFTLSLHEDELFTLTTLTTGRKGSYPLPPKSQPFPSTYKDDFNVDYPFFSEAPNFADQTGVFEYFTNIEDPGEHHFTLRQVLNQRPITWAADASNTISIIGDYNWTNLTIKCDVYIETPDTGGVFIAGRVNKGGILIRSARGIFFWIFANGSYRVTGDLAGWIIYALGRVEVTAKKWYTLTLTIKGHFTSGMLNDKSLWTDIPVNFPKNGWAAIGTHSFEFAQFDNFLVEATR
How it was run: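 Fluorogenic HMU-b-Gal hydrolysis (0.1 mM final, pH 5.2 citrate-phosphate with 1 mg/mL sodium taurocholate; carbonate stop buffer) measures mutant GALC activity after compound treatment of live 145M-Twi Twitcher brain cells stably carrying human GALC-G270D, with wild-type GALC line alongside; activation sought.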
Also: 0% is about no effect; nearly all actives have a fitted effect of over 65% in size.

activation, inactive:
Cn1c(=O)c(=O)n(C)c2cc(S(=O)(=O)Nc3ccc(Cl)c(C(F)(F)F)c3)ccc21 -8.35%
Fc1ccc(Nc2c(-c3ccco3)nc3ccccn23)cc1 -10.6%
COc1cc(OC)c(NC(=O)Cn2cnc3nc4c(cc3c2=O)CCCC4)cc1Cl -9.18%
Clc1ccc(-c2nnn3c2nc(NCc2ccc4c(c2)OCO4)c2ccccc23)cc1 -8.21%
Cc1cc(=O)oc2cc(OCC(=O)Nc3c(C(C)C)cccc3C(C)C)ccc12 -15.9%
Cc1ccc(NC(=O)C2CCC(CNS(=O)(=O)c3ccc4c(c3)C(C)(C)C(=O)N4C)CC2)cc1 (centres undefined) -0.232%
CC(C)(C)c1ccc(C(=O)N2CCN(Cc3cc(=O)n4nc(-c5ccccc5F)sc4n3)CC2)cc1 -7.98%
CCOc1ccc(CNC(=O)Cc2ccc(NC(=O)N3CCCCc4ccccc43)cc2)cc1OC -6.92%
O=C(CCCCCn1c(=O)[nH]c2ccccc2c1=O)NCc1ccc(Cl)cc1 -7.21%
CCC(=O)N1CCc2cc(Br)cc(S(=O)(=O)NCc3ccccc3)c21 3.25%
CCCc1cc(N2CCN(c3ccc(OC)cc3)CC2)n2cnnc2n1 -6.75%
COc1ccc(CCn2c(=O)c3cccnc3n(CC(=O)Nc3c(C)cc(C)cc3C)c2=O)cc1OC -7.74%
COc1cc(NC(=O)CCNC(=O)Cn2cnc3ccccc3c2=O)cc(OC)c1OC -9.27%
Cc1cc(C)c(NC(=O)Nc2csc3c2CCCC3)c(C)c1 -26%
Cc1sc2ncn(CC(=O)N(C)c3cccc(C(F)(F)F)c3)c(=O)c2c1S(=O)(=O)N1CCN(c2ncccn2)CC1 -4.33%
CCN(CC)C(=O)COc1ccc(-c2nnc(Nc3ccc(OC)c(C(=O)NC)c3)c3ccccc23)cc1 -19.8%
Fc1ccc(-n2ncc3c(N4CCN(c5ccccc5F)CC4)ncnc32)cc1 10.6%
COc1ccccc1-c1nc(SCC(=O)Nc2ccc(C)c(C)c2)n[nH]1 -19.8%
CSc1ccc(CCNC(=O)C2CCN(c3ncnc4c3nc3n4CCCCC3)CC2)cc1 -12.9%
O=C(CCn1ccc2cc(S(=O)(=O)N3CCCC3)ccc21)NCc1ccccc1Cl -14.5%
CCc1nn2c(=O)cc(COC(=O)c3ccccc3NC(=O)c3cccs3)nc2s1 -26%
CCn1nc(C)c2c(-c3ccccc3)cc(=O)n(C(C)C(=O)NCCc3ccccc3)c21 (centres undefined) -9.11%
Cc1cc(=O)oc2c3c(ccc12)OCN(Cc1ccc(Cl)cc1)C3 -5.65%
CCC1CCCCN1C(=O)Cn1c(=O)n(CCCCCC(=O)NCc2ccccc2Cl)c(=O)c2sccc21 (centres undefined) -19%
COc1cccc(-c2nnc3sc(CN4CCCCC4)cn23)c1 -15.5%
Cc1cccc(CCNC(=O)c2c[nH]c3ccc(S(=O)(=O)Nc4ccccc4F)cc3c2=O)c1 4.87%
O=C(NCCc1ccc(Cl)cc1)c1ccc2c(c1)N(Cc1cccc(Cl)c1)C(=O)c1ccccc1S2(=O)=O -9.46%
Fc1ccccc1Nc1ncnc2c1nc1n2CCCCC1 -14.5%
Cc1cccc(CN2C(=O)c3ccccc3Sc3ccc(C(=O)NCc4cccs4)cc32)c1 -7.7%
CCOC(=O)N1CCc2c(sc3c2c(=O)n(-c2ccc(F)cc2)c(=O)n3CC(=O)c2ccccc2)C1 -9.38%
O=C(NCCc1ccccc1)C1COc2ccccc2C1 (centres undefined) -23.1%
CCOC(=O)c1c(NC(=O)c2cc3ccccc3c(=O)o2)sc2c1CCC(C(C)(C)C)C2 (centres undefined) -2.34%
Cc1cc(=O)n(CC(=O)NC(C)c2ccccc2)c2c1c(C)nn2C (centres undefined) -38.4%
CCc1ccc(NC(=O)c2cc(C)nn2-c2ccccc2)cc1 -14.5%
CCOC(=O)c1c(C)n(-c2ccccc2)c2ccc(OC(=O)c3cc(OC)cc(OC)c3)cc12 -12.6%
CCCNc1nc2c(c(=O)n(C)c(=O)n2C)n1CC(O)COc1ccccc1 (centres undefined) -5.04%
COc1ccc(NC(=O)c2oc3ccccc3c2NC(=O)COc2ccc(F)cc2)c(OC)c1 -16.2%
Cn1c(=O)n(C)c2cc(NS(=O)(=O)c3ccc(C(C)(C)C)cc3)c(NCc3ccccc3)cc21 -16.2%
Cc1cccc(C(=O)Nc2nnc(S(=O)(=O)N3CCCc4ccccc43)s2)c1 -12.8%
Cc1ccc(NC(=O)Cn2cc(C(=O)C3CCCCC3)c3ccccc32)c(C)c1 -17%
CCOc1ccc(NC(=O)CCNS(=O)(=O)c2cccc3nsnc23)cc1 -11%
CCS(=O)(=O)N1CCc2cc(C(=O)Nc3cc(OC)c(Cl)cc3OC)ccc21 -2.21%
CCOc1ccc(C(=O)Nc2ccc3oc(-c4ccncc4)nc3c2)cc1 -17.8%
Cc1ccc(Nc2nc(C)c(NC(=O)c3ccc(C)cc3)c(Nc3ccc(C)cc3)n2)cc1 -16.3%
CCC(=O)Nc1cc(-c2nc3ccccc3s2)c(Cl)cc1Cl -1.75%
CCc1cccc(C)c1NC(=O)C(CC)Sc1nncn2c1cc1occc12 (centres undefined) -7.09%
O=C(Cn1ccc2cc(S(=O)(=O)N3CCCC3)ccc21)NCc1ccccc1Cl -4.44%
CCN1c2ccccc2-c2nc(SCC(=O)Nc3cc(F)ccc3F)ncc2S1(=O)=O -14.6%
CCC(C(=O)Nc1cccc(C#N)c1)n1nc(-c2ccccc2)ccc1=O (centres undefined) 2.82%
Cc1ccc(NC(=O)CCCn2nc(C)c3sc4ccccc4c3c2=O)c(Cl)c1 5.18%
COC(=O)c1ccccc1NC(=O)CSc1nnc2cc(C)c3cc(C)cc(C)c3n12 -10.2%
O=C(c1ccc2c(c1)N(Cc1ccc(Cl)cc1)C(=O)c1ccccc1S2(=O)=O)N1CCc2ccccc21 11%
Cc1ccc(-c2nnc(Nc3cccc(Br)c3)c3ccccc23)cc1S(=O)(=O)NCC1CCCO1 (centres undefined) -7.83%
O=C(NCc1ccc(F)cc1)C(=O)NCC(c1ccco1)S(=O)(=O)c1cccs1 (centres undefined) -26.8%
COc1ccccc1N1CCN(S(=O)(=O)c2c(C)sc3ncn(CC(=O)NCCN(C)C)c(=O)c23)CC1 -22.8%
O=C(NCCC1=CCCCC1)c1ccc2c(c1)N(Cc1ccc(Cl)cc1)C(=O)c1ccccc1S2(=O)=O -0.957%
CCc1ccc(N2C(=O)N(CC(=O)C(C)(C)C)c3ccccc3S2(=O)=O)cc1 -3.05%
COc1ccc(OC)c(NC(=O)CSC2=Nc3ccccc3C3=NC(CCC(=O)NCCc4ccccc4)C(=O)N23)c1 (centres undefined) -4.76%
CCOc1ccc(NC(=O)CCn2nc(C)c(S(=O)(=O)N3CCCCC3)c2C)cc1 -2.25%
